Experimental data as given in patent US10299477B2 (priority 2015, dated 2019).

Tested on: Phytophthora infestans
Assay type: in vivo
Conditions: 250 ppm, sprayed 2.5 ml/pot before inoculation; evaluated 5-10 days after inoculation

Compound	Test F (control value class, late blight on tomato)
CCOc1cc(F)c(-c2c(-c3cccc(OC)c3Cl)cc(Cl)c(=O)n2CC)c(F)c1 [Compound 641]	L (L shows 50% or less of control values)
CCn1c(-c2c(F)cc(OC)cc2F)c(-c2cccc(OC)c2Cl)cc(Br)c1=O [Compound 642]	H (H shows more than 50% of control values)
CCOc1cc(F)c(-c2c(-c3cccc(OC)c3Cl)cc(Br)c(=O)n2CC)c(F)c1 [Compound 643]	L (L shows 50% or less of control values)
CCn1c(-c2c(F)cc(OC)cc2F)c(-c2cccc(OC)c2Cl)cc(C)c1=O [Compound 644]	L (L shows 50% or less of control values)
CCOc1cc(F)c(-c2c(-c3cccc(OC)c3Cl)cc(C)c(=O)n2CC)c(F)c1 [Compound 645]	L (L shows 50% or less of control values)
Cn1c(-c2c(F)cccc2F)c(-c2ccc(F)cc2F)cc(Cl)c1=O [Compound 646]	L (L shows 50% or less of control values)
O=c1ccc(-c2ccc(F)cc2F)c(-c2c(F)cccc2F)n1CC(F)F [Compound 647]	H (H shows more than 50% of control values)
O=c1c(Cl)cc(-c2ccc(F)cc2F)c(-c2c(F)cccc2F)n1CC(F)F [Compound 648]	L (L shows 50% or less of control values)
CCN1C(=O)CCC(c2ccccc2Br)=C1c1c(F)cc(F)cc1F [Compound 650]	L (L shows 50% or less of control values)
CCn1c(-c2c(F)cc(F)cc2F)c(-c2ccccc2Br)ccc1=O [Compound 651]	L (L shows 50% or less of control values)
CCn1c(-c2c(F)cc(F)cc2F)c(-c2ccccc2Br)cc(Cl)c1=O [Compound 652]	L (L shows 50% or less of control values)
Cn1c(-c2c(F)cc(F)cc2F)c(-c2cc(F)c(F)cc2F)cc(Cl)c1=O [Compound 653]	L (L shows 50% or less of control values)
COc1cc(F)c(-c2c(-c3cc(F)c(F)cc3F)ccc(=O)n2C)c(F)c1 [Compound 654]	H (H shows more than 50% of control values)
COc1cc(F)c(-c2c(-c3cc(F)c(F)cc3F)cc(Cl)c(=O)n2C)c(F)c1 [Compound 655]	L (L shows 50% or less of control values)
CCn1c(-c2c(F)cc(OC)cc2F)c(-c2cccc(F)c2Cl)cc(Br)c1=O [Compound 656]	L (L shows 50% or less of control values)
CCOc1cc(F)c(-c2c(-c3cccc(F)c3Cl)ccc(=O)n2CC)c(F)c1 [Compound 657]	L (L shows 50% or less of control values)
CCOc1cc(F)c(-c2c(-c3cccc(F)c3Cl)cc(Cl)c(=O)n2CC)c(F)c1 [Compound 658]	L (L shows 50% or less of control values)
CCOc1cc(F)c(-c2c(-c3cccc(F)c3Cl)cc(Br)c(=O)n2CC)c(F)c1 [Compound 659]	L (L shows 50% or less of control values)
CCOc1cc(F)c(-c2c(-c3cccc(F)c3Cl)cc(C)c(=O)n2CC)c(F)c1 [Compound 660]	H (H shows more than 50% of control values)
COc1cccc(-c2ccc(=O)n(C)c2-c2c(F)cc(F)cc2F)c1Cl [Compound 661]	H (H shows more than 50% of control values)
COc1cccc(-c2cc(Br)c(=O)n(C)c2-c2c(F)cc(F)cc2F)c1Cl [Compound 662]	L (L shows 50% or less of control values)
COc1cc(F)c(-c2c(-c3cccc(OC)c3Cl)ccc(=O)n2C)c(F)c1 [Compound 663]	H (H shows more than 50% of control values)
CCOc1cc(F)c(-c2c(-c3cccc(OC)c3Cl)ccc(=O)n2C)c(F)c1 [Compound 664]	H (H shows more than 50% of control values)
